# Reference: the RNAGym collection of RNA variant scans (doi:10.1093/nar/gkz1192)
# The source gives no read counts; variants with many changes may rest on few reads.
# B1: CPEB3 Ribozyme (parent)
# chain: UAACAGGGGGCCACAGCAGAAGCGUUCACGUCGCAGCCCCUGUCAGAUUCUGGUGAAUCUGCGAAUUCUGCUGUAUAUCUC
# Variants of: B1
# Assay: self-cleavage, relative activity (ratio to wild type); higher = more cleavage; in vitro, sequencing
# Summary of the method: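 Relative activity compares each variant's cleaved/total read fraction with that of the unmutated ribozyme. To get these fractions, barcoded CPEB3 ribozyme libraries from rounds of error-prone PCR were transcribed with T7 RNA polymerase for 5 hours at 37°C and then given 15 min of DNase I treatment before EDTA was added. The RNAs were reverse transcribed with template switching and sequenced on Illumina, and DNA sequencing linked barcodes to variants. A minimum of 5 reads applied, and three batches were averaged.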
row,Variant,self-cleavage
1,C32U U51A A57U C59A,0.17
2,G33A C39A G42A,0.4
3,A35G A56G U76C,1.08
4,G33A U58C G63A U80C,0.14
5,G33C U43A A47U U60C U74A,0.1
6,U31C U43C C62G,0.08
7,U31C U60C U66C U80C,0.2
8,U31C G42C U49C U66A,0.09
9,C34G U41C U60A,0.19
10,U31C U41A A45G A56G G63C A64U,0.06
11,G33A U51C A57G A77G,0.24
12,A35G A56G G61A,0.7
13,C34A C40U U54C A75G,0.04
14,C32A G42U A45G A65U U66C,0.19
15,U31C A45G U78C,0.36
16,G33U U67G U78C,0.13
17,U31A A47U A56U,0.09
18,A35C U67A U80C,0.4
19,C34A U41C U60A,0.15
20,C32U U41C G55A A56U A57G,0.08
21,A35G A45U U49A U51A,0.62
22,U31A A57G U69A,0.26
23,U31C U76G U78A,0.48
24,U31C U51G A75G,0.52

row,Variant,self-cleavage
1,C32A U54A U76C U80C,0.29
2,U31G C32U G46A,0.08
3,C32A A56G A64G,0.14
4,U31A G36A A57G C62A U74C,0.06
5,C34U U43A U67C U80C,0.15
6,U31C U54A U72A,0.59
7,U31C U60C C71U,0.29
8,G33A U51A U58C U72C U80C,0.15
9,U31A U54C U78C,0.47
10,U31C G61C A77U,0.2
11,G33A C38U U43A U51A U72C U80A,0.08
12,U31C U41C U69A U72A,0.3
13,U31C C39U C50A A56G,0.23
14,C32U U41C U54C,0.21
15,G33C G53U U67C A75G,0.09
16,U31A C32A U72G,0.23
17,U31C U51G U78C,0.74
18,C34U A35U A65G G73U,0.47
19,A35G A47G C62U U67C,0.63
20,G33A U41A U49C,0.16
21,U31C G42A A57U U72G,0.12
22,A35G A45U U60C A75G C79G,1.25
23,U31C A57G U72C,0.72
24,A35C U41A U51C U58C U74A,0.14

row,Variant,self-cleavage
1,C34U A45G G73A U76C,0.81
2,U31C A45U U80C,0.46
3,G33A U67C U74A,0.04
4,U31C U54C A64G,0.54
5,U31C A47G G52C,0.61
6,U31A U60A A65G U67A,0.12
7,A35C G70A U78C,0.15
8,U31A U41C G42A A45G U49C U66C U67A,0.18
9,A35C U41C U60A U72C U76A,0.25
10,U31C A64G A75G,0.29
11,U31C U49A U51C,0.44
12,G33C G52A C59A U72C,0.07
13,C32U U51C U54A U72C U80C,0.1
14,U31C A45G A64U,0.17
15,C32U A45C U58C,0.11
16,U31C A35G A45G U54G,1.14
17,U31C A56U G70A,0.17
18,U31C C39A A47G U48A U78C,0.3
19,G33U A35U U51C U80A,0.09
20,U31C A57G U67C,0.16
21,U31G C68G U80C,0.14
22,C32U A35U A56G C71U U72C,0.33
23,U31A U69A U72C,0.19
24,U31C G33A U41C A65G,0.18

row,Variant,self-cleavage
1,U31A G36C U51A,0.07
2,U31A U67C U78A,0.14
3,G30U C44U A56U U60C U66C A77U,0.05
4,U31C U41A U49C U78C,0.15
5,A35G A57G A64C U72A U74G,0.96
6,G33A A45G A47U,0.19
7,U31G U54C G63A,0.35
8,G33C C34A C40U U54C A64G U72C,0.06
9,A35C U60A U76C U80C,0.47
10,U31A U54A U58C A64G,0.15
11,G33A U49C U72C,0.05
12,G33A U49C U72A A75G,0.07
13,U31C C34U A35C U58G A64G,0.05
14,U31C U43C C71G,0.1
15,U31C A45U U49C A65G U72C,0.15
16,C32A G61C A64G C71A,0.11
17,U31C U41C A64G,0.47
18,C32A G53U U54C A65G,0.12
19,A35C G36A A47G,0.18
20,U31C U43A A57G U78C,0.58
21,G33A A35G U43C G55A,0.05
22,U31C U48G A56U,0.12
23,U31C A65G U66C,0.26
24,C34U U67A U78C,0.14

row,Variant,self-cleavage
1,U31C U60C A64U U74C,0.18
2,C32U A35G U58C,0.14
3,U31A U49C U60C U78A,0.05
4,C32A C37A U41A U49C A65G,0.11
5,U31C G46A A57G,0.18
6,U31C C38A U49C A56C G63U U72A,0.05
7,C32A A77G U80A,0.19
8,G33U U49C G53A U66C,0.3
9,U31C G53A A56G,0.94
10,G33A U41A U69C U80C,0.14
11,U31G A64G A65G,0.15
12,U31A C34U U72C,0.15
13,G33A G61U U72A,0.12
14,U31C A56G U72A,0.38
15,C34U A35G C44G,0.08
16,U31A A35G U41C A57U,0.54
17,A35G A45G U74A,1.27
18,U31C U41A U66A A75G,0.06
19,A35C U54C A65G,0.34
20,U31C A45G U51G,0.5
21,U31C A45G U51A,0.46
22,U31A U58C U80A,0.38
23,U31C U43A A77G U80C,1
24,U31C C62U C68U U78G,0.14

row,Variant,self-cleavage
1,U31A U41C A45G A56G,0.26
2,U31C U54C U72C U78C,1.05
3,C32A U43C A45G U54A A57U U67C U74A,0.05
4,C34U U41A U60C,0.19
5,G30U U41A U49C U69C U78A,0.07
6,U31A A56G U78A,0.49
7,U31A U49C C59U A64G U69A,0.04
8,C32A G36U A64G,0.26
9,C34A U49A U60C,0.11
10,U31A U41A U60A U66A,0.13
11,C32A U41C U51A U72C U76G,0.07
12,U31A U51C A64U A65G U72A,0.05
13,U31A A35G U51A U67C,0.48
14,U31A A57G U66C U78C,0.43
15,U31C A57G C59G,0.12
16,U31C C44U A56G,0.15
17,U31C C44U A56U,0.12
18,U31C G33U U48C,0.14
19,G33A U41A A56U U78A,0.14
20,U31G A45G A57G G61A,0.45
21,A35G A57G U58A C59U A64U U78C,0.46
22,G30U C39U A45C A64U,0.07
23,U31A U74C U76C,1.12
24,U31C U41A U60C U78C,0.19

row,Variant,self-cleavage
1,U31C A35G A45G,0.69
2,G33U A35G A45U A56G U76C,0.1
3,G33C G55U U66C A77G,0.11
4,U31A C38A U41C U54C,0.19
5,G33A U49C U78C,0.15
6,C32G A65U U80A,0.13
7,C32G A45U U48A A65C,0.13
8,C34U G61A U78C,0.07
9,U31A A35G U60A,0.75
10,U31A U43C U51G A75G,0.09
11,U31A U41A U72C U74A U76C,0.14
12,C34U U49C U72C,0.12
13,C32U C44U U67C,0.13
14,G33U U51C C62U,0.25
15,U31A A35G U67C A77G,0.35
16,U31A U49C U54A,0.13
17,C32A G36A U72A,0.06
18,U31C U41C U78C,0.87
19,U31C U60C U67C,0.13
20,G33A A64G A75U,0.13
21,A35C A45U A56G,0.14
22,C32U U51A U80C,0.65
23,G33A U69C U72C,0.15
